The list shows a part of the results. Most values come without repeats; read them as rough.
Legend:
Assay in all cases: cell count relative to DMSO control; melanoma cells; higher = more viable cells
Conditions in all cases: library dose: standard library concentration; 72 h
501Mel = system: 501Mel
A101D = system: A101D
A2058 = system: A2058
A375 = system: A375
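Further: cells treated in 1,536-well plates, then fixed and DAPI-stained, with nuclei counted from automated high-throughput microscope images.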

Row | SMILES | cell count (501Mel) [%] | cell count (A101D) [%] | cell count (A2058) [%] | cell count (A375) [%]
1 | COc1ccc(C2=N[C@@H](c3ccc(Cl)cc3)[C@@H](c3ccc(Cl)cc3)N2C(=O)N2CCNC(=O)C2)c(OC(C)C)c1 [Nutlin-3] + COc1ccc(COc2ccc(Cc3cnc(N)nc3N)cc2OC)cc1 [GW2580] (first compound 0.5 µM, partner dose 5 µM) | 70.4 | 71.6 | 93.1 | 75.6
2 | COc1ccc(C2=N[C@@H](c3ccc(Cl)cc3)[C@@H](c3ccc(Cl)cc3)N2C(=O)N2CCNC(=O)C2)c(OC(C)C)c1 [Nutlin-3] + CCc1ccc(CCOc2ccc(CC3SC(=O)NC3=O)cc2)nc1 [pioglitazone] (first compound 0.5 µM, partner dose 10 µM) | 94.3 | 68.7 | 96.1 | 83.4
3 | Cn1c(=O)n(-c2ccc(C(C)(C)C#N)cc2)c2c3cc(-c4cnc5ccccc5c4)ccc3ncc21 + O=C(Nc1ccccc1)c1cc([N+](=O)[O-])ccc1Cl [GW9662] (first compound 0.02 µM, partner dose 10 µM) | 83 | 68 | 80.1 | 83.2
4 | Cn1c(=O)n(-c2ccc(C(C)(C)C#N)cc2)c2c3cc(-c4cnc5ccccc5c4)ccc3ncc21 + C=CCn1c(=O)c2cnc(Nc3ccc(N4CCN(C)CC4)cc3)nc2n1-c1cccc(C(C)(C)O)n1 [MK1775] (first compound 0.02 µM, partner dose 0.1 µM) | – | 59.6 | 59.8 | 42.8
5 | Cc1cc(Nc2cc(N3CCN(C)CC3)nc(/C=C/c3ccccc3)n2)n[nH]1 + COc1ccc2c(c1)CCC1C2CCC2(C)C(NCCCCCCN3C(=O)C=CC3=O)CCC12 [U73122] (first compound 0.2 µM, partner dose 2 µM) | 81.1 | 55.3 | 49.6 | 64.6
6 | COc1ccc(C2=N[C@@H](c3ccc(Cl)cc3)[C@@H](c3ccc(Cl)cc3)N2C(=O)N2CCNC(=O)C2)c(OC(C)C)c1 [Nutlin-3] + CC1(C)NC(=O)N(c2ccc([N+](=O)[O-])c(C(F)(F)F)c2)C1=O [nilutamide] (first compound 0.5 µM, partner dose 5 µM) | – | 49.9 | 85.6 | 79.3
7 | CC(C)C[C@H](NC(=O)[C@H](Cc1ccccc1)NC(=O)c1cnccn1)B(O)O [Bortezomib] + Oc1cc(-c2nc(-c3ccccc3)[nH]c2-c2ccncc2)ccc1Cl [L779450] (first compound 0.005 µM, partner dose 1 µM) | 7.01 | 11.3 | 9.64 | 88.8
8 | Cc1cc(Nc2cc(N3CCN(C)CC3)nc(/C=C/c3ccccc3)n2)n[nH]1 + NC(=O)Nc1cc(-c2cccc(F)c2)sc1C(=O)N[C@H]1CCCNC1 [AZD7762] (first compound 0.2 µM, partner dose 0.1 µM) | – | 64.3 | 78 | 67.8
9 | CC(C)C[C@H](NC(=O)[C@H](Cc1ccccc1)NC(=O)c1cnccn1)B(O)O [Bortezomib] + CC(=O)c1c(C)c2cnc(Nc3ccc(N4CCNCC4)cn3)nc2n(C2CCCC2)c1=O [palbociclib] (first compound 0.005 µM, partner dose 0.2 µM) | – | 12.5 | 13.1 | 83.2
10 | CC(C)C[C@H](NC(=O)[C@H](Cc1ccccc1)NC(=O)c1cnccn1)B(O)O [Bortezomib] + Cc1nc(Nc2ncc(C(=O)Nc3c(C)cccc3Cl)s2)cc(N2CCN(CCO)CC2)n1 [dasatanib] (first compound 0.005 µM, partner dose 0.02 µM) | – | 20 | 12.4 | 69.3
11 | Cn1c(=O)n(-c2ccc(C(C)(C)C#N)cc2)c2c3cc(-c4cnc5ccccc5c4)ccc3ncc21 + C[C@@H](Oc1cc(-c2cnn(C3CCNCC3)c2)cnc1N)c1c(Cl)ccc(F)c1Cl [Crizotinib] (first compound 0.02 µM, partner dose 1 µM) | – | 75.1 | 45.9 | 94.5
12 | COc1ccc(C2=N[C@@H](c3ccc(Cl)cc3)[C@@H](c3ccc(Cl)cc3)N2C(=O)N2CCNC(=O)C2)c(OC(C)C)c1 [Nutlin-3] + C#Cc1cccc(Nc2ncnc3cc(OCCOC)c(OCCOC)cc23)c1 [erlotinib] (first compound 0.5 µM, partner dose 4 µM) | – | 62.5 | 97.7 | 92.2
13 | Cc1cc(Nc2cc(N3CCN(C)CC3)nc(/C=C/c3ccccc3)n2)n[nH]1 + C#Cc1cccc(Nc2ncnc3cc(OCCOC)c(OCCOC)cc23)c1 [erlotinib] (first compound 0.2 µM, partner dose 4 µM) | – | 53.6 | 55.3 | 82.4
14 | Cc1cn(-c2cc(NC(=O)c3ccc(C)c(Nc4nccc(-c5cccnc5)n4)c3)cc(C(F)(F)F)c2)cn1 [nilotinib] + CC(C)C[C@H](NC(=O)[C@H](Cc1ccccc1)NC(=O)c1cnccn1)B(O)O [Bortezomib] (first compound 1 µM, partner dose 0.005 µM) | – | 14.8 | 6.57 | 85.3
15 | Cn1c(=O)n(-c2ccc(C(C)(C)C#N)cc2)c2c3cc(-c4cnc5ccccc5c4)ccc3ncc21 + Nc1cccc2c1CN(C1CCC(=O)NC1=O)C2=O [lenalidomide] (first compound 0.02 µM, partner dose 5 µM) | – | 75.7 | 67.5 | 82.9
16 | CC(C)C[C@H](NC(=O)[C@H](Cc1ccccc1)NC(=O)c1cnccn1)B(O)O [Bortezomib] + Cc1cc(N2CCOCC2)cc2[nH]c(-c3c(NC[C@@H](O)c4cccc(Cl)c4)cc[nH]c3=O)nc12 [BMS536924] (first compound 0.005 µM, partner dose 1 µM) | – | 5.28 | 15 | 95.3
17 | Cn1c(=O)n(-c2ccc(C(C)(C)C#N)cc2)c2c3cc(-c4cnc5ccccc5c4)ccc3ncc21 + Clc1ccc(Nc2nnc(Cc3ccncc3)c3ccccc23)cc1 [vatalanib] (first compound 0.02 µM, partner dose 10 µM) | – | 58.2 | 51.2 | 70.7
18 | Cc1cc(Nc2cc(N3CCN(C)CC3)nc(/C=C/c3ccccc3)n2)n[nH]1 + C[C@@H](Oc1cc(-c2cnn(C3CCNCC3)c2)cnc1N)c1c(Cl)ccc(F)c1Cl [Crizotinib] (first compound 0.2 µM, partner dose 1 µM) | – | 73.7 | 42.2 | 84.8
19 | CC(C)C[C@H](NC(=O)[C@H](Cc1ccccc1)NC(=O)c1cnccn1)B(O)O [Bortezomib] + OCCn1cc(-c2cnc3nnn(Cc4ccc5ncccc5c4)c3n2)cn1 [PF04217903] (first compound 0.005 µM, partner dose 5 µM) | – | 8.07 | 10.6 | 76.6
20 | CC(C)C[C@H](NC(=O)[C@H](Cc1ccccc1)NC(=O)c1cnccn1)B(O)O [Bortezomib] + CO[C@H]1C[C@@H]2CC[C@@H](C)[C@@](O)(O2)C(=O)C(=O)N2CCCC[C@H]2C(=O)O[C@H]([C@H](C)C[C@@H]2CC[C@@H](OCCO)[C@H](OC)C2)CC(=O)[C@H](C)/C=C(\C)[C@@H](O)[C@@H](OC)C(=O)[C@H](C)C[C@H](C)/C=C/C=C/C=C/1C [everolimus] (first compound 0.005 µM, partner dose 0.1 µM) | – | 21.1 | 23.5 | 99.9
21 | CC(C)C[C@H](NC(=O)[C@H](Cc1ccccc1)NC(=O)c1cnccn1)B(O)O [Bortezomib] + Cn1c(Nc2ccc(C(F)(F)F)cc2)nc2cc(Oc3ccnc(-c4ncc(C(F)(F)F)[nH]4)c3)ccc21 [CHIR265] (first compound 0.005 µM, partner dose 0.4 µM) | – | 15.5 | 10.9 | 77.9
22 | Cc1cn(-c2cc(NC(=O)c3ccc(C)c(Nc4nccc(-c5cccnc5)n4)c3)cc(C(F)(F)F)c2)cn1 [nilotinib] + CC(=O)c1c(C)c2cnc(Nc3ccc(N4CCNCC4)cn3)nc2n(C2CCCC2)c1=O [palbociclib] (first compound 1 µM, partner dose 0.2 µM) | – | 68 | 126 | 106
23 | COc1ccc(C2=N[C@@H](c3ccc(Cl)cc3)[C@@H](c3ccc(Cl)cc3)N2C(=O)N2CCNC(=O)C2)c(OC(C)C)c1 [Nutlin-3] + O=C(O)[C@@H]1[O][Sb](=[O])([O][Sb]2(=[O])[O][C@H]([C@H](O)CO)[C@H](O)[C@H](C(=O)O)[O]2)[O][C@H]([C@H](O)CO)[C@@H]1O [stibogluconate] (first compound 0.5 µM, partner dose 10 µM) | – | 70.5 | 115 | 74.3
24 | Cc1cc(Nc2cc(N3CCN(C)CC3)nc(/C=C/c3ccccc3)n2)n[nH]1 + NC1(c2ccc(-c3nc4ccn5c(=O)[nH]nc5c4cc3-c3ccccc3)cc2)CCC1 [MK2206] (first compound 0.2 µM, partner dose 2 µM) | – | 68 | 69.9 | 98
25 | Cc1cn(-c2cc(NC(=O)c3ccc(C)c(Nc4nccc(-c5cccnc5)n4)c3)cc(C(F)(F)F)c2)cn1 [nilotinib] + CO[C@@H]1[C@H](N(C)C(=O)c2ccccc2)C[C@H]2O[C@]1(C)n1c3ccccc3c3c4c(c5c6ccccc6n2c5c31)C(=O)NC4 [Midostaurin] (first compound 1 µM, partner dose 0.4 µM) | – | 74.9 | 72.8 | 76.3
26 | CC(C)C[C@H](NC(=O)[C@H](Cc1ccccc1)NC(=O)c1cnccn1)B(O)O [Bortezomib] + O=C(O)c1ccc2c(c1)nc(Nc1cccc(Cl)c1)c1ccncc12 [CX4945] (first compound 0.005 µM, partner dose 2 µM) | – | 19.8 | 10 | 74.7

— the supplement of paper PMC4604168 (melanoma cell lines)
